Reference: PubChem BioAssay AID1347165 (National Center for Advancing Translational Sciences (NCATS), 2019)
Where “and” joins values, the source holds several entries; their conditions need not be identical. Equal values may be shown once. In all, about 220,000 compounds went through this assay and about 5,700 (2.6%) were called active. This list was built around the results that the source calls inconclusive (neither active nor inactive); the mix of calls is not that of the screen. The call rests on the fitted dose curve; in most records, active means well fitted inhibition curve with a large enough effect; inconclusive means small, poorly fitted or top-dose-only effect; inactive means no such curve, though single readings can be large or run the other way. Potencies beside an inconclusive call are fits to weak or partial responses and may not hold up.

Molecular target: Lysine-specific demethylase 5B (Homo sapiens) (UniProt Q9UGL1)
Experiment: Primary screen for KDM5B Histone Demethylases FDH-coupled qHTS; further: nearly all actives have a fitted effect of over 70% in size
Details: FDH-coupled NADH fluorescence (FDH is formaldehyde dehydrogenase); series mostly up to 57.7 µM
How it was run: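 qHTS format, multiple compound concentrations. Buffer 50 mM HEPES pH 7.5/0.01% Tween-20; 200 nM KDM5BΔAP final; 10 min compound preincubation; substrate-mix levels 12.5 µM peptide, 25 µM α-KG, 0.25 mM NAD⁺; 30 min RT; ΔRFU.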
Potency means the concentration at half of the fitted maximal effect; tags describe the fitted curve by direction and shape.

UniProt Q9UGL1, sequence (Q9UGL1 whole entry, looked up): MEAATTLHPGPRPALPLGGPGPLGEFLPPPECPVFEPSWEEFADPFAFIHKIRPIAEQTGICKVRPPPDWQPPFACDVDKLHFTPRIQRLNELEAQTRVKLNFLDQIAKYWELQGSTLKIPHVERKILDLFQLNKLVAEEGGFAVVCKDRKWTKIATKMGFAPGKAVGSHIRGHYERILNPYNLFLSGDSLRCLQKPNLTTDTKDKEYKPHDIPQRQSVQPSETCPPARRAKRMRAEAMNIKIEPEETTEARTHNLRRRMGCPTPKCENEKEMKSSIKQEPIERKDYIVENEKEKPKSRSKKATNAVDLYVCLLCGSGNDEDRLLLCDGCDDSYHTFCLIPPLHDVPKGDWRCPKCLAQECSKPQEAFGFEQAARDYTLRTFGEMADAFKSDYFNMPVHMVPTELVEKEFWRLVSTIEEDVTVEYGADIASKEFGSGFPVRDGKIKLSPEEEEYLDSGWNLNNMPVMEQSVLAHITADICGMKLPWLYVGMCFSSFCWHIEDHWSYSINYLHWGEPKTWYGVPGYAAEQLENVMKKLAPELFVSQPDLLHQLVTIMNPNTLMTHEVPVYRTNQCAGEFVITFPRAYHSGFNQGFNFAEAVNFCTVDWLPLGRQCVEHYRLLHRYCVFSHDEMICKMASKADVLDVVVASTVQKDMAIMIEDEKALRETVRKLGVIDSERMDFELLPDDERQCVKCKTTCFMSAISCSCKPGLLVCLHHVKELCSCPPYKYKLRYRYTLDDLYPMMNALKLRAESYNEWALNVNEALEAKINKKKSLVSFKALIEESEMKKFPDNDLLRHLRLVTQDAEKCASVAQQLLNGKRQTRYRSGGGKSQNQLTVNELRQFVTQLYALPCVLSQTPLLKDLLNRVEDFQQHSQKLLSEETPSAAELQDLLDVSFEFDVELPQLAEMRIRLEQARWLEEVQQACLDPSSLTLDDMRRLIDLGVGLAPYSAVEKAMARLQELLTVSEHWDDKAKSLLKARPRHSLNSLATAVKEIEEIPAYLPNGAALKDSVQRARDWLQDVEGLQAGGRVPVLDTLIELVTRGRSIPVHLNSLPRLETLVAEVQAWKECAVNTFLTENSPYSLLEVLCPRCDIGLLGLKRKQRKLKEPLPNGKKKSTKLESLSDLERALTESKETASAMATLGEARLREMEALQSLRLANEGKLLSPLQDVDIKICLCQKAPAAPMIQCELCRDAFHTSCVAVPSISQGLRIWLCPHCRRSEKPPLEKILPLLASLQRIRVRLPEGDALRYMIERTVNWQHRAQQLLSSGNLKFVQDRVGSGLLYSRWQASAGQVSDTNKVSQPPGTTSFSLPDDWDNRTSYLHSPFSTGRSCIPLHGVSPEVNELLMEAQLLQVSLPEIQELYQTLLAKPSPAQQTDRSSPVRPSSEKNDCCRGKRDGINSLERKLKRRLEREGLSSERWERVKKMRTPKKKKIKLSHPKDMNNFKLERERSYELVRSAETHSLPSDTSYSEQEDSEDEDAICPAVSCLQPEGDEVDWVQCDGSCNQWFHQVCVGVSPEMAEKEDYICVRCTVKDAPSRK

| SMILES | Potency |
| --- | --- |
| O=C(O)CC/C(=C/c1csc(-c2ccc(Cl)cc2)n1)c1nc2ccccc2s1 | inconclusive: 1.78 µM [inhibitor, partial curve, poor fit] |
| COCCCNC(=S)NNC(=O)CC(c1ccccc1)c1ccccc1 | inactive |
| Fc1cccc(CN2CCc3nc(Nc4ccc5c(c4)OCCO5)ncc3C2)c1F | inconclusive: 25.1 µM [inhibitor, partial curve, poor fit] |
| O=C(COC(=O)c1cc(-c2cccs2)nc2ccccc12)NCC1CCCO1 (centres undefined) | inconclusive: 25.1 µM [inhibitor, partial curve, poor fit] |
| CC(=O)N1CCN(c2csc3ccc(Cl)cc3c2=O)CC1 | inconclusive: 25.1 µM [inhibitor, partial curve, poor fit] |
| CCCCOC(=O)c1ccc(NC(=O)c2ccc3c(c2)CCN3S(C)(=O)=O)cc1 | inconclusive: 4.47 µM [inhibitor, full curve, poor fit] |
| COC(=O)c1scc(-c2ccc(C)cc2)c1S(=O)(=O)Nc1cc(C)c(Cl)cc1OC | inconclusive: 7.08 µM [inhibitor, partial curve, poor fit] |
| Cc1ccc(NC(=O)c2ccc(OCc3c(C)noc3C)cc2)cc1C | inconclusive: 28.2 µM [inhibitor, single point] |
| Cc1ccccc1Nc1c(-c2c[nH]c3ccccc23)nc2ccc(Cl)cn12 | inconclusive: 31.6 µM [inhibitor, partial curve, poor fit] |
| CCn1nc(C)c(CCC(=O)NC2CCCc3c2[nH]c2ccccc32)c1C (centres undefined) | inconclusive: 7.94 µM [inhibitor, partial curve] |
| Cc1cn2nc(C(=O)NCc3ccccc3C(F)(F)F)cc2c(N2CCSCC2)n1 | inconclusive: 28.2 µM [inhibitor, partial curve, poor fit] |
| COc1ccc(-c2nc(-c3ccccc3)nc3c2CN(C(=O)Cc2ccccn2)CC3)cc1 | inconclusive: 20 µM [inhibitor, partial curve, poor fit] |
| COc1cccc(C2CC(=O)Nc3nc(C)[nH]c(=O)c32)c1OC (centres undefined) | inactive |
| COc1ccc(Cl)cc1-c1ncc2c(n1)OCCN(Cc1ccc(F)cc1F)C2=O | active: 35.5 µM |
| COCCN1CCNc2nc(COc3ccc(Oc4ccccc4)cc3)n(Cc3ccccc3)c2C1=O | inconclusive: 25.1 µM [inhibitor, partial curve, poor fit] |
| CCCn1cc2c3c(cccc31)CN(C(=O)c1cccc(F)c1)CC2 | inconclusive: 31.6 µM [inhibitor, partial curve, poor fit] |
| Cc1cccc(OC(=O)CSc2nnc(-c3cccs3)o2)c1C | inconclusive: 50.1 µM [inhibitor, single point] |
| Cc1cccc(Nc2nc(-c3ccccc3)nc3ccccc23)c1 | inconclusive: 35.5 µM [inhibitor, partial curve, poor fit] |
| COc1ccc(-c2cn3c(n2)sc2cc(C(=O)NCCCN4CCN(C)CC4)ccc23)cc1 | inconclusive: 4.47 µM [inhibitor, partial curve, poor fit] |
| COc1ccc2cc(/C=C(\NC(=O)c3ccccc3)C(=O)NCCO)c(Cl)nc2c1 | inactive |
| Cc1ccccc1N1CCN(C(=O)c2noc(-c3ccc[nH]c3=O)n2)CC1 | active: 28.2 µM |
| O=C(NCc1ccc(F)cc1)c1ccccc1-c1ncc(-c2ccccc2)o1 | inconclusive: 25.1 µM [inhibitor, partial curve, poor fit] |

| SMILES | Potency |
| --- | --- |
| CC1CCN(C(=O)COc2cc(O)c3c(=O)cc(-c4ccccc4)oc3c2)CC1 | inactive |
| O=C(CN(c1ccccc1F)S(=O)(=O)c1ccccc1)Nc1ccccc1C(=O)O | inactive |
| CCOc1cccc(CNC)c1OCc1ccc(Cl)cc1 | inactive |
| CSc1nccc(-c2cc(NCc3cccnc3)nc3[nH]ccc23)n1 | inconclusive: 12.6 µM [inhibitor, partial curve, poor fit] |
| COc1ccc(CN2CCNc3cnc(OCc4cccnc4)cc3C2)cc1 | active: 28.2 µM |
| Cn1cncc1CNC(=O)c1cc(-c2ccc(F)cc2)cc2ncn(C)c12 | active: 28.2 µM |
| COc1ccc(-n2nc3n(c2=O)CCN(CC2CCCCC2)C3)cc1 | inconclusive: 89.1 µM [inhibitor, partial curve] |
| COc1ccc(C(=O)NCc2nnc3c(-c4nc(C(C)C)no4)cccn23)cc1 | inconclusive: 12.6 µM [inhibitor, partial curve] |
| CCn1ccc(C(=O)N2CCCN(c3cc(-c4ccc(OC)cc4)[nH]n3)CC2)n1 | inconclusive: 11.2 µM [inhibitor, partial curve] |
| COC(=O)C1=C(C)N=C2SC=C(CC(=O)N3CCCC3)N2C1c1ccccc1OC (centres undefined) | inconclusive: 22.4 µM [inhibitor, single point] |
| CN1Cc2cccn2CC1CNC(=O)c1ccco1 (centres undefined) | active: 28.2 µM |
| O=C(CSc1nc2c([nH]c3ccccc32)c(=O)n1-c1ccccc1F)Nc1cccc(Cl)c1 | inconclusive: 31.6 µM [inhibitor, single point] |
| CC(Nc1oc(-c2ccc(COc3ccccc3)o2)nc1C#N)c1ccccc1 (centres undefined) | inconclusive: 31.6 µM [inhibitor, partial curve, poor fit] |
| O=C(C1CC1)N1CCCC1c1nc(C2CCOCC2)no1 (centres undefined) | inconclusive: 20 µM [inhibitor, partial curve] |
| CCCCCOc1ccc(/C=C/C(=O)/C=C/c2ccc(OCCCCC)cc2)cc1 | inactive |
| COCC(C)NC(=O)CSc1cc(-c2ccccc2)c2ccc(OC)cc2n1 (centres undefined) | inconclusive: 35.5 µM [inhibitor, single point] |
| COCCn1ccc2c(C3=CCOCC3)nc(-c3cccc(N4CCOCC4)c3)cc21 | inconclusive: 39.8 µM [inhibitor, partial curve, poor fit] |
| Cc1cccc(-n2ncc3c(NCCOCCO)ncnc32)c1 | inconclusive: 2.24 µM [inhibitor, full curve, poor fit] |
| O=S(=O)(c1ccccc1)n1nc(-c2ccco2)nc1NCc1ccccc1 | inconclusive: 31.6 µM [inhibitor, single point] |
| CCc1nnc(NC(=O)c2nc(SCc3cccc(C)c3)ncc2Cl)s1 | inconclusive: 28.2 µM [inhibitor, single point] |
| CCCCN(Cc1cc2cc(C)ccc2[nH]c1=O)S(=O)(=O)c1ccc(Cl)cc1 | inactive |
| COc1ccc(-c2c(NC(=O)C(C)C)oc3c(C)cccc3c2=O)cc1 | inactive |

| SMILES | Potency |
| --- | --- |
| CCc1nc(NCCOC)ncc1C(=O)O | inconclusive: 28.2 µM [inhibitor, partial curve, poor fit] |
| CCC(Sc1nnc(-c2ccc(F)cc2)c(-c2ccc(F)cc2)n1)C(=O)NC1CCCC1 (centres undefined) | inconclusive: 31.6 µM [inhibitor, single point] |
| Cc1ccc2[nH]c(=O)c(CCC(=O)NCc3ccco3)cc2c1 | inconclusive: 28.2 µM [inhibitor, single point] |
| CCOc1ccc(CN(C)C(=O)C2CCN(c3nc4ccccc4o3)CC2)cc1OC | inactive |
| CC(=O)N1CCN(C(=O)Cn2ccc3cc(Br)ccc32)CC1 | inactive |
| CCOc1ccc(-c2cn3c(n2)sc2cc(C(=O)NC(C)C45CC6CC(CC(C6)C4)C5)ccc23)cc1 (centres undefined) | inconclusive: 31.6 µM [inhibitor, single point] |
| CS(=O)(=O)c1ccc(OCC2(CNCc3cccc(C(F)(F)F)c3)C[C@@H](O)[C@@H](O)C2)cc1 (some centres undefined) | inconclusive: 31.6 µM [inhibitor, partial curve, poor fit] |
| CCOc1ccc(C(c2c(O)cc(C)n(Cc3ccco3)c2=O)N2CCN(C)CC2)cc1 (centres undefined) | inconclusive: 31.6 µM [inhibitor, partial curve, poor fit] |
| Cc1ccc(CNC(=O)Cn2c(N3CCc4ccccc4C3)nc(C)cc2=O)cc1 | active: 28.2 µM |
| O=C(NC1CCc2ccccc21)c1cc2c(s1)CCCC2 (centres undefined) | inconclusive: 39.8 µM [inhibitor, partial curve, poor fit] |
| CCc1nn2c(=O)cc(COC(=O)c3ccccc3NC(=O)c3ccccc3F)nc2s1 | inactive |
| CCN1CCN(c2nc3c(s2)CN(Cc2ccco2)CC3)CC1 | inconclusive: 15.8 µM [inhibitor, partial curve] |
| CC(=O)Nc1ccc(C(=O)Nc2ccc3sc(NC(=O)C(C)C)nc3c2)cc1 | inconclusive: 39.8 µM [inhibitor, single point] |
| COc1ccc(-c2ocnc2C(=O)Nc2ccc(Cl)cc2)cc1OC | inconclusive: 39.8 µM [inhibitor, partial curve, poor fit] |
| C#CCN1CCC(C(=O)N(C)Cc2ccc(Br)o2)CC1 | inactive |
| Cc1cccc(-n2nc(-c3c(C)nc4scc(CC(=O)NC5CC5)n4c3=O)cc2C)c1 | active: 25.1 µM |
| CC1=C(C(=O)OC(C)C)C(c2ccccc2C)N2C(CC(=O)NC3CC3)=CSC2=N1 (centres undefined) | inconclusive: 31.6 µM [inhibitor, partial curve, poor fit] |
| COc1ccc(-c2cn3c(n2)sc2cc(C(=O)NCCc4ccccc4)ccc23)cc1 | inconclusive: 17.8 µM [inhibitor, partial curve, poor fit] |
| c1ccc(CN2CCNc3cc(-c4ccncc4)ncc3C2)cc1 | inactive |
| COc1ccccc1/C=C/c1nc(C#N)c(NCc2ccccc2)o1 | inconclusive: 28.2 µM [inhibitor, partial curve, poor fit] and inconclusive: 25.1 µM [inhibitor, partial curve, poor fit] |
